Test results taken from PMC6212790.
This is one part of the list. At the low end of the ranking the order means little.

molecular target: T1, GST-Rok (full length) (UniProt O34857); assay: protein binding microarray; details: Rok is a gene silencer of Bacillus subtilis; high values mean tight binding; most listed sequences are background and not binding sites; double strand, one strand shown;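 note: rank score from −0.5 (least bound) to 0.5 (best bound)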
T1 sequence: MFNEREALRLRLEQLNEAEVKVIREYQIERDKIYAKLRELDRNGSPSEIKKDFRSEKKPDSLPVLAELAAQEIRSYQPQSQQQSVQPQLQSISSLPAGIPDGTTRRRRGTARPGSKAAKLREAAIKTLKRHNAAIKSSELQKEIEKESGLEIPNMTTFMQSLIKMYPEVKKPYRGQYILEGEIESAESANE

Sequence	binding signal [E-score]
ATAATTAT	0.268
GAACAAAA	-0.0504
AAAGTAAT	0.226
GTGCGTTA	0.0713
AAAACGAC	-0.0861
ACATCGTA	0.128
GAAAATTA	0.246
TAGCCTGA	-0.0671
AGGCCGTA	-0.152
ATCATACC	0.175
AAGGAGAG	-0.225
CAGGGCAC	-0.171
GTTCTGTA	0.247
ACCGAGAC	-0.13
GCGGTATA	0.347
AATTGGAC	0.203
CCTAAGAC	-0.19
CGGGGACG	-0.267
GAGATAGA	0.174
ATTCGCCC	-0.0875
CGGACACA	0.0219
ACGAAGAA	0.133

Sequence	binding signal [E-score]
AGTAGCGG	0.0902
ATATGGGC	-0.194
CAGCCACC	-0.265
CAATTCCA	0.149
GAACCCGC	-0.266
CCCAAAGA	-0.227
TAAGAAAA	0.148
ACACCGTA	0.0364
ACGCTAGT	0.0908
GATCGAGA	-0.0825
GGAAGCTA	0.285
GACACCGC	-0.354
CCAAGCGG	-0.0754
GAGCGAAC	-0.155
AATTATTA	0.197
GAGAGCTA	0.0199
CTTGCTCA	-0.00949
GCATTCAC	-0.0649
CAGTAGGG	0.0232
ATAATTCC	0.213
AGATAATG	0.225
GTACGTGA	0.0943

Sequence	binding signal [E-score]
TATGGCGA	-0.0118
CAAGTTCC	-0.0399
AAGCATGA	0.00535
AGAGTGTG	-0.0475
AACCGTCC	-0.00539
GTAGTCAA	0.21
CGCGTTAG	0.07
GCACATTA	0.206
CCCTAAGC	-0.164
ACGAGTTG	0.149
CATGTATC	0.181
CGTTTGAG	0.024
AGGTCTTC	-0.16
AGCCATCA	-0.0405
ACTCTATC	0.058
ACTGGCGG	-0.0567
CGAATGGC	-0.16
ATACGCAG	0.0832
AGGCCTGC	-0.247
TCCACACA	0.0753
ACGCCTAC	-0.0847
CGTTGCAG	0.0152

Sequence	binding signal [E-score]
GGCGGAGA	-0.0868
ATAATCCA	0.197
ATTGGTGA	0.0777
AACTCACC	-0.145
ACCCCCGT	-0.152
GCACTTAA	-0.0625
AAAGACAT	-0.0102
AACTTGCA	0.156
GCCAGGAA	-0.112
AGAATATA	0.296
TCCGTGCA	0.035
GCCATCGA	-0.0559
CATGGTTC	-0.143
AAACGAAG	-0.0542
CTTTGGGA	-0.188
GCTGGGAC	-0.239
CGGAACAA	-0.0511
CAAGGCTG	-0.107
ACCAACCC	-0.142
TGGCGACA	-0.153
CTTAAAAA	-0.118
CGAGCTCC	-0.255

Sequence	binding signal [E-score]
CGGGCATC	-0.152
ATGCTCGG	-0.128
AACAAACC	-0.256
GATCAGGA	-0.113
GATCCGCA	-0.245
ATCGCAAC	0.0204
CTATGGAG	-0.0809
CCTTGGAA	-0.0553
AGTATACT	0.338
CGATCACC	-0.23
CCACCTCC	-0.294
GAAAAGTC	-0.13
CCCAACAC	-0.0981
GGTCGACA	-0.133
CTGACCTA	0.153
AGGAGCTC	-0.0168
CAACCCGC	-0.0798
CCACCGAC	-0.206
TGAAAACA	0.168
TCTCGAAA	0.0858
GATATGAA	0.129
AGGCAGTC	-0.124
